Assay results: the antibiotic and cytotoxicity screens of Wong et al. (2023)
Some of the results follow.

Experiments:
[1] = system: HSkMC (human skeletal muscle cells); assay: cytotoxicity call (relative viability < 0.9); settings: 10 µM
[2] = system: HepG2; assay: cytotoxicity call (relative viability < 0.9); settings: 10 µM
[3] = system: S. aureus RN4220; assay: growth inhibition call (relative growth <= 0.2); settings: 50 µM

Row | SMILES | cytotoxicity call [1] | cytotoxicity call [2] | growth inhibition call [3]
1 | C[C@@H]1CN([C@H](C)CO)C(=O)c2cc(NC(=O)c3ccccc3)ccc2O[C@@H](C)CCCCO[C@H]1CN(C)Cc1ccccc1 | inactive | active | inactive
2 | C[C@@H]1CN([C@@H](C)CO)C(=O)c2cc(NS(=O)(=O)c3cn(C)cn3)ccc2O[C@@H]1CN(C)CC1CCCCC1 | inactive | inactive | inactive
3 | C=CCOC(=O)O[C@H]1[C@@H](OC)O[C@H](COC(=O)NCCCCCC(=O)NO)[C@H]2OC(=O)[C@@H](Cc3cccc(Br)c3)C/C=C/C[C@H](Cc3ccccc3)C(=O)O[C@H]12 | inactive | inactive | inactive
4 | CSCC[C@H](NC(=O)[C@H](CCC(=O)O)NC(=O)[C@H](CCC(=O)O)NC(C)=O)C(=O)N[C@@H](CCC(N)=O)C(=O)N[C@@H](CCCNC(=N)N)C(=O)N[C@@H](CCCNC(=N)N)C(N)=O | inactive | inactive | inactive
5 | C[C@@H]1CN([C@@H](C)CO)C(=O)Cc2cc(NC(=O)Nc3ccccc3)ccc2O[C@@H]1CN(C)Cc1ccc(-c2ccccc2)cc1 | inactive | inactive | inactive
6 | C[C@H](CO)N1C[C@H](C)[C@@H](CN(C)C(=O)c2ccccc2)OCCCC[C@H](C)Oc2ccc(NS(=O)(=O)c3ccc(Cl)cc3)cc2C1=O | inactive | inactive | inactive
7 | Cc1ncc(CO)c(CO)c1O.Cl | inactive | inactive | inactive
8 | C[C@H]1CN([C@@H](C)CO)C(=O)Cc2cc(NC(=O)Nc3ccc(C(F)(F)F)cc3)ccc2O[C@@H]1CN(C)Cc1ccc(C(=O)Nc2ccccc2N)cc1 | inactive | inactive | inactive
9 | CN(C)Cc1ccc(O)c(CN(C)C)n1 | inactive | inactive | inactive
10 | COC(=O)C[C@H]1CC[C@@H](N)[C@@H](CO)O1 | inactive | inactive | inactive
11 | CCOC(=O)[C@@H]1CCC[C@@H]1N | inactive | inactive | inactive
12 | Cc1cn([C@H]2C[C@H](O)[C@@H](CO)O2)c(=O)[nH]c1=O | inactive | inactive | inactive
13 | CCS(=O)(=O)N1C[C@]2(CCN(CC2)C(=O)c2cccnc2)c2c(n(c3cc(ccc23)OC)C)[C@H]1CO | inactive | inactive | inactive
14 | C[C@H](CO)N1C[C@H](C)[C@@H](CN(C)Cc2ccc(C(=O)O)cc2)Oc2ccc(NC(=O)C3CC3)cc2CC1=O | inactive | inactive | inactive
15 | CC1(C)CCCC2(C)C1CCC1(C)OCCC12 (stereo unspecified) | inactive | inactive | inactive
16 | O=C(C[C@H]1CC[C@@H]2[C@H](COC[C@@H](O)CN2C(=O)Nc2ccc(C(F)(F)F)cc2)O1)NCCc1ccncc1 | inactive | inactive | active
17 | NC[C@H]1O[C@H](O[C@H]2[C@@H](O[C@@H]3O[C@H](CO)[C@@H](O)[C@H]3O)[C@@H](O)[C@H](N)C[C@@H]2N)[C@H](N)[C@@H](O)[C@@H]1O | inactive | inactive | inactive
18 | COCC#Cc1cnc2c(c1)C(=O)N([C@H](C)CO)C[C@H](C)[C@H](CN(C)C(=O)c1cnccn1)O2 | inactive | active | inactive
19 | COC(=O)C[C@@H]1CC[C@H]2[C@@H](COC[C@H](O)CN2S(=O)(=O)c2ccccc2C)O1 | inactive | inactive | inactive
20 | COc1ccc(Cc2cnc(N)nc2N)cc1OC | inactive | inactive | active
21 | CC(C)CC#Cc1ccc2c(c1)O[C@@H](CN(C)C(=O)c1ccccn1)[C@H](C)CN([C@H](C)CO)S2(=O)=O | inactive | inactive | inactive
22 | COc1ccc(NC(=O)N2C[C@@H](O)COC[C@H]3O[C@H](CC(=O)NCc4ccccc4OC)CC[C@@H]32)cc1 | inactive | inactive | inactive
23 | COc1ccc(CN(C)C[C@@H]2Oc3ccc(NC(=O)CCCCCC(=O)Nc4ccccc4N)cc3CC(=O)N([C@H](C)CO)C[C@@H]2C)cc1 | inactive | inactive | inactive
24 | C[C@@H]1CN([C@H](C)CO)C(=O)CCCn2nncc2CO[C@@H]1CN(C)S(=O)(=O)c1cn(C)cn1 | inactive | inactive | inactive
25 | NC(CO)(CO)CO | inactive | inactive | inactive
26 | C=CC1=C(C(=O)O)N2C(=O)[C@@H](NC(=O)/C(=N/O)c3csc(N)n3)[C@H]2SC1 | inactive | inactive | active
27 | C[C@@H]1CCCCO[C@H](CN(C)C(=O)CCCN(C)C)[C@H](C)CN([C@H](C)CO)C(=O)c2cc(NS(C)(=O)=O)ccc2O1 | inactive | inactive | inactive
